# Assay results as given in PubChem BioAssay AID488969 (Vanderbilt High Throughput Screening Facility, 2010).
# The full ranking holds about 110,000 compounds; the median of “z-score” is about -0.1, and the highest 2% start at about 2. Some of the results follow. Active and inactive are the calls of the source.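 Rule for the calls: active = z-score in the third read window above 3 or below -3; inactive = the rest.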
# Target: Metabotropic glutamate receptor 8 (Rattus norvegicus) (UniProt P70579)
# Experiment: rat mGluR8 modulators via GIRK flux, primary screen, cell-based, thallium flux, HTS (AID 488969)
# Conditions: HEK293 rat mGluR8, GIRK (G protein-gated inwardly rectifying potassium channel) thallium flux, FluoZin2; at 10 µM; stronger effect = higher value; submaximal glutamate (EC20) added with thallium
# UniProt P70579, sequence (P70579 whole entry, looked up): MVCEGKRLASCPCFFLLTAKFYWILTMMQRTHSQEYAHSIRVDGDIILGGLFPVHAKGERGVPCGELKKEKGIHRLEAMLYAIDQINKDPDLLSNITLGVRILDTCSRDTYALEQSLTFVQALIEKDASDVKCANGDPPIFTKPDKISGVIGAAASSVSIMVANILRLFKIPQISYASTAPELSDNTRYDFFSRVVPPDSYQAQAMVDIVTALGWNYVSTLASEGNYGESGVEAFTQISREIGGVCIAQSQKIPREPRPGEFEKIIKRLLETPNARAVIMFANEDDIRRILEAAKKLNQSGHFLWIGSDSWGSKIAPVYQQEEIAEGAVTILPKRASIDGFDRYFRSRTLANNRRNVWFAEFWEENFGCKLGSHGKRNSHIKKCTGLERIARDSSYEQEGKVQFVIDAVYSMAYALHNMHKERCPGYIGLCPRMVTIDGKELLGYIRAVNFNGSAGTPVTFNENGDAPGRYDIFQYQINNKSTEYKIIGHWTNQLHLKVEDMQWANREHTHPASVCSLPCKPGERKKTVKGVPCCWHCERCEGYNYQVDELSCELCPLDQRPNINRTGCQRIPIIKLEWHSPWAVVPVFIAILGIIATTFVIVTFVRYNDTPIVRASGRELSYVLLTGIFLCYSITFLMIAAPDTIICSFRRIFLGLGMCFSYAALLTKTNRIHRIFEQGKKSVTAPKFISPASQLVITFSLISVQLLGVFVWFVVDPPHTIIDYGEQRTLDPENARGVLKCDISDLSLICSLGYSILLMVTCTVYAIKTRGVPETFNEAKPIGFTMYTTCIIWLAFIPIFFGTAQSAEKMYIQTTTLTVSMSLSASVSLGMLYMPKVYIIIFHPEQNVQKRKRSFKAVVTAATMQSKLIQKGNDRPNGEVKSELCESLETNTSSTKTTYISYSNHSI
row,SMILES,z-score
1,O=C(CSc1nnnn1-c1ccccc1)CSc1nnnn1-c1ccccc1,-0.288
2,O=C(CCCn1c(=O)[nH]c2cc(Cl)ccc2c1=O)NCCN1CCN(c2ccccc2)CC1,-0.459
3,CCn1c(COc2ccc(Cl)cc2)nnc1SCc1ccc(C#N)cc1,-0.00745
4,O=C(NC1CCCCC1)c1cccc(COCC(F)(F)F)c1,0.167
5,CN(C)C(=O)CSc1nc(-c2ccccc2)nc2c1CCCC2,-1.55
6,O=c1cc(N2CCOCC2)[nH]c(=O)n1-c1ccc(Cl)cc1,0.0794
7,CCC(=O)Nc1nc2ccc3nc(C)sc3c2s1,active: 3.6
8,COC(=O)c1sccc1NC(=O)Cn1cnc2c1c(=O)n(C)c(=O)n2C,0.0133
9,N=c1n(Cc2ccccc2)c2ccccc2n1CC(O)c1ccco1 (centres undefined),0.39
10,Cc1ccc(O)c(-c2cc(-c3ccccc3C)[nH]n2)c1,-0.442
11,CCOc1ccccc1CN1C(=O)c2ccccc2C1C(=O)NC(C)CC (centres undefined),-0.411
12,Nn1c(SCc2ccccc2)nnc1-c1ccccn1,0.00631
13,Cc1cc(C)cc(-n2c(C)cc(/C=C3\C(=N)N4N=C(CC(C)C)SC4=NC3=O)c2C)c1,0.807
14,CCOc1ccc(N=C2NC(=O)S/C2=C\c2ccc(Cl)cc2)cc1,-0.125
15,CCc1ccc2[nH]c(=O)c(CN(Cc3ccc(F)cc3)C(c3nnnn3CCN3CCOCC3)C(C)C)cc2c1 (centres undefined),-0.702
16,CC(=O)c1c(C)[nH]c(C(=O)CSc2nnc(-c3cccs3)n2Cc2ccccc2)c1C,-0.815
17,Cn1c(=O)c2c(nc(NCCCO)n2C/C=C/c2ccccc2)n(C)c1=O,-0.152
18,O=C(c1ccc(CS(=O)(=O)c2ccc(Br)cc2)o1)N1CCN(c2ncccn2)CC1,active: 3.31
19,COc1ccc(NCc2nnc(SCc3ccccc3)n2-c2ccc(OC)cc2)cc1,-0.342
20,CCCCSc1nnc2n(CCc3ccccc3)c(=O)c3c4c(sc3n12)COC(C)(C)C4,-0.42
21,CCc1ccc(NC(=O)C2CC(=O)N(C(C)C)C2)cc1 (centres undefined),-0.111
22,COc1ccc(C2C(C#N)=C(N)N(c3sc4c(c3C#N)CCCC4)C3=C2C(=O)CC(C)(C)C3)cc1 (centres undefined),0.455
23,CCCCOc1ccc(Cl)cc1CSc1nncn1N,0.538
24,Brc1ccc2ncc(Br)cc2c1,0.57
25,CCc1nc2oc(C(=O)c3ccccc3)c(N)c2c2c1COC(C)(C)C2,0.63
26,CCC(C)NC(=O)CSc1nc(-c2cccs2)cc(C(F)(F)F)n1 (centres undefined),-0.151
27,CC(=O)N1CCN(c2cc(N3CCc4ccccc4C3)c(F)cc2[N+](=O)[O-])CC1,-0.214
28,CN1CCN(S(=O)(=O)c2ccc(NC(=O)Nc3cccc(Cl)c3)cc2)CC1,1.72
29,COc1ccc(NC(=O)NC23CC4CC(CC(C4)C2)C3)cc1OC,-0.136
